Reference: PubChem BioAssay AID485344 (National Center for Advancing Translational Sciences (NCATS), 2010)
In all, about 340,000 compounds went through this assay and about 6,900 (2%) were called active. Rule as the data show it: active = inhibition above about 30%; inactive = below that, where a call was filed. Only a part is listed here, and it is no random draw. Entries without a call were filed so in the source.

target: D(2) dopamine receptor (Homo sapiens) (UniProt P14416); test: HTS Assay for Allosteric Antagonists of the Human D2 Dopamine Receptor: Primary Screen for Antagonists; details: HEK293 TREx D2 cells, calcium flux, dopamine EC80; at 10 µM; stronger effect = higher value; also: 0% is about no effect
Chain of UniProt P14416 (P14416 whole entry, looked up): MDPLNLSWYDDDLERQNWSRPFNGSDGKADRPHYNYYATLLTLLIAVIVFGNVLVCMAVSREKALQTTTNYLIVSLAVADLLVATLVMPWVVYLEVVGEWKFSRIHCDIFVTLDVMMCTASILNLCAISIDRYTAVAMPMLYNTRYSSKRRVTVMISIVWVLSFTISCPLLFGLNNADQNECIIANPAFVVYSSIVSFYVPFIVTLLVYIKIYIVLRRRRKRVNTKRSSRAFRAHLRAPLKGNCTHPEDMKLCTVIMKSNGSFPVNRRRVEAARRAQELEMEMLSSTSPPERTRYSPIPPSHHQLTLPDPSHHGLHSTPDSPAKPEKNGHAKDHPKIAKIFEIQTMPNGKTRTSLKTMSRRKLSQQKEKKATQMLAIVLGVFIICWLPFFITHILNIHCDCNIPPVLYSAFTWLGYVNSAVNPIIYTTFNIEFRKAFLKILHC
Method in brief: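 Compounds are added to dye-loaded, induced HEK293 T-REx cells coupled to calcium release via D2; after a 3 min kinetic read an EC80 dopamine stimulus is given and fluorescence is recorded for 3 more min.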

Structure (SMILES) | inhibition
Cc1cccc(NC(=O)c2oc3ccc(S(=O)(=O)N4CCCCC4)cc3c2C)c1C | -12%
COc1ccc(CNC(=O)CN(C)c2nn3c(=O)cc(C)nc3s2)cc1 | -6.57%
COc1cccc(C2=NN(S(C)(=O)=O)C(c3cn(-c4ccccc4)nc3-c3cccs3)C2)c1 (stereo unspecified) | 2.01%
CC(=O)c1ccc(N2CCN(C(=O)CS(=O)(=O)c3cccc4nsnc34)CC2)cc1 | -14.3%
COc1ccccc1NC(=O)N1CC=C(c2c[nH]c3ccccc23)CC1 | 7.03%
Cc1cc(=O)[nH]c2nnc(SCCC(C)C)n12 | 9.31%
Cc1ccc(-c2noc(-c3ccc(NCC4CCCO4)c([N+](=O)[O-])c3)n2)cc1 (stereo unspecified) | -3.34%
COc1ccc(CCNC(=O)CSc2nnc(-c3ccc(C)cc3)c(-c3ccc(C)cc3)n2)cc1OC | -1.31%
CCC(=O)N1CCc2cc(S(=O)(=O)NC(C(=O)NCc3ccccc3Cl)C(C)C)ccc21 (stereo unspecified) | 11.8%
Cc1nn(C(=O)c2ccccc2)c(C)c1S(=O)(=O)N1CCOCC1 | -16.1%
CC1=C(C(=O)NCCN2CCN(C)CC2)C2(CCC(C)CC2)OC1=O (stereo unspecified) | active: 61.5%
COc1ccc(CNC(=O)c2ccc(-c3nc(CSc4ccc(C)cc4)c(C)o3)cc2)cc1OC | 1.23%
Cc1c(C(=O)NCc2ccccc2Cl)sc2nc(-c3ccc(F)cc3)cn12 | 24.6%
CCOC(=O)CN(Cc1ccccc1)C(C(=O)NC1CCCCC1)c1ccc(C)cc1 (stereo unspecified) | -9.31%
CCOC(=O)C1CCN(C(=O)Cn2c(-c3cccs3)cc3cc(Cl)ccc32)CC1 | -3.45%
COC(=O)C1Sc2[nH]c(=O)sc2C(c2ccc(Cl)cc2)C1C(=O)OC (stereo unspecified) | active: 37.6%
Cc1nnnn1CC(=O)Nc1ccccc1[N+](=O)[O-] | active: 36.5%
CCOc1ccccc1CNS(=O)(=O)c1ccc2c(c1)C(C)(C)C(=O)N2C | 0.822%
COc1ccc(N2CCN(CC(O)COc3ccc(C)cc3C)CC2)cc1 (stereo unspecified) | -23.7%
Cc1ccc(CNC(=O)CCS(=O)(=O)c2cc3c(cc2Cl)NC(=O)CO3)cc1 | 12.2%
CC1=C(c2ccc(C)cc2)S(=O)(=O)NC1=NCCCN1CCN(c2cc(C)ccc2C)CC1 | 17.1%
Cc1ccc(Cl)cc1N1CCN(C(=O)CN2C(=O)COc3ccc(S(=O)(=O)N4CCC(C)CC4)cc32)CC1 | 12.5%
CCOCCCNCc1ccc(OC)c(OC)c1 | active: 36.2%
COc1ccc(N2CCN(c3ncnc4c3cnn4-c3ccc(C)c(Cl)c3)CC2)cc1 | -17.7%

Structure (SMILES) | inhibition
CC(C)(C)C(=O)NC1(C(F)(F)F)NC(=O)N(c2ccc(F)cc2)C1=O (stereo unspecified) | 12.8%
O=C(NCc1ccc(Cl)cc1)c1ccc(NC(=O)N2CC3CCCN3c3ccccc32)cc1 (stereo unspecified) | 6.46%
Cc1cc(C)c2c(n1)SCC(=O)N2CC(=O)Nc1ccc(C)c(C)c1 | 12.8%
COCCNc1ncnc2c1cnn2-c1cc(Cl)ccc1C | -11.4%
O=C(CCNS(=O)(=O)c1ccccc1)NCCSc1ccc(Br)cc1 | active: 45.1%
Cn1nc(C(=O)NCc2cccc(Cl)c2)c2c1-c1ccccc1SC2 | -7.88%
CN1CCN(C(c2ccc(Cl)cc2Cl)c2sc3nc(-c4ccco4)nn3c2O)CC1 (stereo unspecified) | 7.95%
Cc1ccc(S(=O)(=O)C2(C(=O)Nc3ccc(C)c(Cl)c3)CC2)cc1 | -9.49%
CCC(=O)N1c2ccccc2CC1C(=O)NCCc1ccccc1Cl (stereo unspecified) | -16.7%
Cc1ccc(OCC(=O)Nc2ccc(OCc3cc(=O)n4ccsc4n3)cc2)cc1 | -14%
O=S(=O)(NCc1ccccc1Cl)c1ccc(-c2cnc(C3CC3)o2)cc1 | -9.28%
COc1ccc(N2C(=O)CSC23C(=O)N(Cc2ccccc2F)c2ccccc23)cc1Cl (stereo unspecified) | 4.8%
Cc1c(CC(=O)N2CCCCC2)c(=O)oc2cc3occ(C(C)(C)C)c3cc12 | -0.547%
COc1ccc(-c2cn3cccnc3n2)cc1NC(=O)COc1ccccc1 | 7.52%
CCC1=Nc2cc(C(=O)NCc3ccccc3OC)ccc2Sc2ccc(Cl)cc21 | 6.15%
Cc1ccccc1CNC(=O)c1cccc(NC(=O)c2nsc3ccccc23)c1 | -14.8%
COc1ccccc1C1=NS(=O)(=O)N(C)C(C(=O)Nc2cc(OC)c(OC)c(OC)c2)=C1 | 16.5%
Cc1ccc2c(c1)c1c(c(=O)n(-c3cccc(Cl)c3)c(=O)n1CC(=O)c1ccc(Cl)cc1)n2C | 21.3%
CC(C)Cn1cc(NC(=O)NCc2ccccc2)c2ccccc2c1=O | -3.4%
CCCCn1c(=N)c(S(=O)(=O)c2ccccc2)cc2c(=O)n3cccc(C)c3nc21 | 11.9%
Cc1nc2nc(SCC(=O)Nc3cccc(Cl)c3)nn2c(C)c1Cc1ccccc1 | -5.91%
COc1ccc(Nc2nc3c(S(=O)(=O)c4ccccc4)nnn3c3ccc(Cl)cc23)c(OC)c1 | -8.16%
CC1(C)CC(=O)C/C(=N/Nc2nc3ccccc3s2)C1 | active: 35.8%
Fc1ccc(-c2cc(-c3nc(-c4ccccc4)no3)[nH]n2)cc1 | 11.1%

Structure (SMILES) | inhibition
Cc1ccc(S(=O)(=O)N(C)C)cc1NC(=S)N1CCc2ccccc21 | active: 55.3%
CC(C)c1ccc(NC(=O)c2cn(C3CCCCC3)c(=O)c3c2c2ccccc2n3C)cc1 | 9.36%
Cc1ccc(CNC(=O)Cn2c(=O)n(Cc3ccccc3)c(=O)c3c2c2cc(C)ccc2n3C)cc1 | -4.11%
COc1cc(N2C(=O)CSC23C(=O)N(C)c2ccccc23)cc(OC)c1OC (stereo unspecified) | 2.05%
CCOc1ccc(N2CC(C)Cn3c2nc2c3c(=O)n(CC(=O)O)c(=O)n2C)cc1 (stereo unspecified) | -6.07%
COc1ccc(Cl)cc1NC(=O)Nc1cccc([N+](=O)[O-])c1C | active: 66.3%
COCCN1Cc2cccc(C(=O)Nc3ccc(C)c(F)c3)c2C1=O | 13.6%
Cc1cc(C)cc(NC(=O)C(=O)NCC(c2ccc3c(c2)OCO3)N2CCOCC2)c1 (stereo unspecified) | 12.6%
COC(=O)c1cccc(NC(=O)N(C)CCc2c(C)nn(C)c2C)c1 | 11.8%
Cc1ccc(CNC(=O)c2cccc(N3CCCS3(=O)=O)c2)cc1 | 6.35%
CN(C(=O)CSc1nc2ccc(NC(=O)c3ccccc3F)cc2s1)c1ccccc1 | 9.44%
CCCCn1cc(S(=O)(=O)c2ccc(OCC)cc2)c(=O)c2cc(OC)c(OC)cc21 | -1.39%
CCOc1ccc(C2C(=O)N(C3CCCCCC3)CC(=O)N2CCC2=CCCCC2)cc1OC (stereo unspecified) | -24.7%
Cc1ccc(NC(=O)CN(CCc2ccccc2)S(=O)(=O)c2ccccc2)c(C)c1 | -7.56%
CCOc1ccc(CNC(=O)Cn2nc(C)n3cccc3c2=O)cc1 | 28.1%
CCc1ccc(-n2nc3ccc(NC(=O)c4cc(Cl)c(OC)c(Cl)c4)cc3n2)cc1 | -16.1%
Cc1ccc(CNC(=O)c2cc3c(s2)CN(Cc2ccccc2)C3)cc1 | active: 38.9%
Cc1ccc(C)c(NC(=O)CCS(=O)(=O)c2cccc3nsnc23)c1 | 4.65%
CCc1cccc(CC)c1N(COC)C(=O)Cn1c(CC)nc2ccccc21 | -11.3%
Cc1ccc(NC(=O)Cn2c(CCC(=O)O)ccc2-c2cccs2)cc1Cl | -2.29%
Cn1c(=O)oc2cc(S(=O)(=O)N3CCCC(C(=O)N4CCN(c5ccc(Cl)cc5)CC4)C3)ccc21 (stereo unspecified) | 3.67%
O=C(CCNC(=O)c1ccc(Br)cc1)NCCCc1ccccc1 | active: 34.2%
Cc1ccc(C)c(N2CCN(C(=O)C3CCN(S(=O)(=O)c4ccc5[nH]c(=O)oc5c4)CC3)CC2)c1 | -2.15%
CCc1ccc2nc(N3CCN(C(=O)c4ccccc4)CC3)sc2c1 | -19.9%

Structure (SMILES) | inhibition
Cc1cc2c(cc1S(=O)(=O)N(CCO)Cc1ccccc1)OCC(=O)N2 | -24.5%
COc1ccc(NC(=O)CN2C(=O)CSc3ccc(S(=O)(=O)N(C)C)cc32)cc1OC | -10.2%
CCOc1cc(C2C(C(=O)Nc3ccccc3)=C(C)Nc3ncnn32)cc(Br)c1O (stereo unspecified) | -6.63%
CCNS(=O)(=O)c1cc(-c2nnc(Nc3cccc(C(F)(F)F)c3)c3ccccc23)ccc1C | 7.34%
COC(=O)c1cc2oc3ccccc3c2n1CC(=O)Nc1ccc(OC)c(OC)c1 | 0.695%
O=C(NC1CCCCC1)c1ccc(CSc2nc3ccncc3n2Cc2ccccc2)cc1 | 7.06%
Cc1ccc2onc(CC(=O)N3CCN(c4ccc(Cl)cc4)CC3)c2c1 | -4.85%
O=C(NCCc1ccccc1)c1ccc(Cn2c(=O)c3cccn3c3cccnc32)cc1 | 10.1%
Cc1ccc(NC(=O)Cn2c(=O)n(CCCC(=O)NCc3ccc4c(c3)OCO4)c(=O)c3ccccc32)cc1 | 9.78%
CCCCCCc1c(C)c2c(cc(C)c3c(C)c(C)oc32)oc1=O | -10.1%
Cc1cccc(N2CCN(C(=O)CCCn3c(=O)[nH]c4ccsc4c3=O)CC2)c1C | -2.46%
O=C1CC(c2nc3ccccc3n2CCC2CCCCC2)CN1c1ccccc1Cl (stereo unspecified) | 3.04%
Oc1c(C(c2ccccc2F)N2CCC3(CC2)OCCO3)sc2nc(-c3ccco3)nn12 (stereo unspecified) | 24.4%
CCCCN(C(=O)Nc1ccc(Cl)cc1)C1CCN(C(C)=O)CC1 | -15.6%
CC(=O)c1cccc(NC(=O)C2=CC(c3ccc(F)cc3)=NS(=O)(=O)N2C)c1 | 3.46%
CCOc1ccc(NC(=O)C2CCCN(c3nn4cc(-c5ccc(OC)cc5)nc4s3)C2)cc1 (stereo unspecified) | -5.94%
O=C(Cn1cnc(S(=O)(=O)N2CCCC2)c1)Nc1cccc(F)c1 | -5.35%
Cc1nc2nc(C)c(NS(=O)(=O)c3ccc(F)cc3)c(=O)n2[nH]1 | 8.43%
Cc1ccc(NC(=O)c2sc3nc4n(c(=O)c3c2C)CCCCC4)c(Br)c1 | 10.9%
CCOC(=O)c1cc2c(=O)n3ccccc3nc2n(CCCOC)c1=NC(=O)c1c(-c2ccccc2Cl)noc1C | 0.334%
CCCS(=O)(=O)NCCc1csc2nc(-c3ccc(C)cc3)nn12 | -12.7%
COc1ccc(-n2nc(C(=O)NCCCOC(C)C)c3c4ccccc4n(C)c3c2=O)cc1 | -3.36%
COc1ccc(OC)c(N(C(=O)c2ccco2)C(C(=O)NC2CCCC2)c2cc(OC)c(OC)c(OC)c2)c1 (stereo unspecified) | active: 36.2%
O=C(Nc1c(Cl)cccc1Cl)c1cccc2c1C(=O)N(C1CCCCC1)C2 | 0.344%
